# From PubChem BioAssay AID1347165 (National Center for Advancing Translational Sciences (NCATS), 2019)
# Hit rate of the full screen: of about 220,000 compounds, about 5,700 (2.6%) were called active. The shares of active, inactive and inconclusive entries below differ from those in the screen. Calls come from the whole dose curve; as a rule, active = well fitted inhibition curve with a large enough effect; inconclusive = small, poorly fitted or top-dose-only effect; inactive = no such curve, though single readings can be large or run the other way. A potency beside an inconclusive call is a rough fit, not a confirmed value.
# Biological target: Lysine-specific demethylase 5B (Homo sapiens) (UniProt Q9UGL1)
# Chain of UniProt Q9UGL1 (Q9UGL1 whole entry, looked up): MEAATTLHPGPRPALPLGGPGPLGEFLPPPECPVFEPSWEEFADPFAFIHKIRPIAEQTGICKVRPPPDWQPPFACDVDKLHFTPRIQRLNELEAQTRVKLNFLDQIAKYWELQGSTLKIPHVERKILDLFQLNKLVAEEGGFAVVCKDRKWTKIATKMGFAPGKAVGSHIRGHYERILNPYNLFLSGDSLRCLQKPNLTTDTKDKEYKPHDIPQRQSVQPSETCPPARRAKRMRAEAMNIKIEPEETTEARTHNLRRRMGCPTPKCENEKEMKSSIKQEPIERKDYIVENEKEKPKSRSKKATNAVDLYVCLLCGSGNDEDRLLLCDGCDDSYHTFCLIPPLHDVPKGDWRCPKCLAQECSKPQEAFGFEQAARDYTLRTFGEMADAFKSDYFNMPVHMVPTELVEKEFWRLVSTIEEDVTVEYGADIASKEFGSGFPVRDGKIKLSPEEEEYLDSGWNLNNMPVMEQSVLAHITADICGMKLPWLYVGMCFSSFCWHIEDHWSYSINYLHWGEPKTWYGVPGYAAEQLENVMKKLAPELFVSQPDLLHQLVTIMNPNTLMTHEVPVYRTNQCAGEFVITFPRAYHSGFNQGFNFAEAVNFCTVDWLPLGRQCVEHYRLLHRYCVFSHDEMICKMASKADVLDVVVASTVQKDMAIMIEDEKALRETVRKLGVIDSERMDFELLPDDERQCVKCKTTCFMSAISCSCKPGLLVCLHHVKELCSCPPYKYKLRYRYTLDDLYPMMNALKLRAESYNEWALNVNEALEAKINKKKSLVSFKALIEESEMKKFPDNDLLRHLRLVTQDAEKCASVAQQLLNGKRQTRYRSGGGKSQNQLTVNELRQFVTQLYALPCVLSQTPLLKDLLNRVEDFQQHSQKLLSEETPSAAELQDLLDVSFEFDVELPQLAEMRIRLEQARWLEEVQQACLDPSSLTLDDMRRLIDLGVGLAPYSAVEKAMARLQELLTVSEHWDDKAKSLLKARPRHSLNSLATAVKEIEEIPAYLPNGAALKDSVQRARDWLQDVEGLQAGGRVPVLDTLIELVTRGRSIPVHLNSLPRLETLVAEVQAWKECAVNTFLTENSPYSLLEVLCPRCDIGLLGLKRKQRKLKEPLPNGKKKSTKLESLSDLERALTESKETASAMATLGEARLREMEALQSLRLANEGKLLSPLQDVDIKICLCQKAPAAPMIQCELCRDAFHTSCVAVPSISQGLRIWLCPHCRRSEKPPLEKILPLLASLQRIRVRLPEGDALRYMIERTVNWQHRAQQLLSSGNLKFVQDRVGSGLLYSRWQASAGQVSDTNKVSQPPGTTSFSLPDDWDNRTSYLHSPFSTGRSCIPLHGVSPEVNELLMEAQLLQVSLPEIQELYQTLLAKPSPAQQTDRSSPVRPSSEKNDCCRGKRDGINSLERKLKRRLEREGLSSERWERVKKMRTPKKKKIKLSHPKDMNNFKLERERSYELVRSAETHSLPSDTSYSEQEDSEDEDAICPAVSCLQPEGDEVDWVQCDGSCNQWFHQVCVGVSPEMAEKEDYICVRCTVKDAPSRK
# Experiment: Primary screen for KDM5B Histone Demethylases FDH-coupled qHTS; note: nearly all actives have a fitted effect of over 70% in size
# Conditions: FDH-coupled NADH fluorescence (FDH is formaldehyde dehydrogenase); series mostly up to 57.7 µM
# Summary of the method: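 Here, H3K4me3 peptide (12.5 µM in substrate mix) is demethylated by KDM5BΔAP, 200 nM final, after 10 min compound exposure. Formaldehyde product is coupled through FDH (0.25 U/mL in mix) to NADH fluorescence; 30-min ΔRFU feeds dose-response curves.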
# Potency is the fitted concentration of half-maximal effect; tags give direction and shape of the fitted curve.
row,SMILES,Potency
1,COC(=O)Cn1c(SCCOc2ccccc2Cl)nc2ccccc21,"inconclusive: 2 µM [inhibitor, full curve, poor fit]"
2,O=C(CCS(=O)(=O)c1nc(-c2ccc3c(c2)OCO3)cc(C(F)(F)F)n1)Nc1ccccc1C(F)(F)F,"inconclusive: 31.6 µM [inhibitor, single point]"
3,O=C(NC1CCNCC1)C1CCCN(c2nc(-c3ccccc3)nc3c2CCC3)C1 (configuration not stated),"inconclusive: 31.6 µM [inhibitor, partial curve, poor fit]"
4,COc1ccc(C(=O)NC2CCN(c3cc(-c4cccs4)[nH]n3)CC2)c(C)c1,"inconclusive: 25.1 µM [inhibitor, partial curve, poor fit]"
5,C=C(Cl)CN1CCC(CC(N)=O)CC1,inactive
6,CCOc1ccc(CNC(=O)c2ccc(Sc3ccc(C)cc3)c(N)c2)cc1OC,"inconclusive: 31.6 µM [inhibitor, partial curve, poor fit]"
7,O=C(Cn1cc(S(=O)(=O)Cc2cccc(F)c2)c2ccccc21)N1CCOCC1,"inconclusive: 39.8 µM [inhibitor, single point]"
8,CC(C)NC(=O)Nc1c(NC2CCCCC2)c2ccccc2oc1=O,inactive
9,CC(=O)N1CCC(N2CCC[C@H]2c2nc(-c3ccnc(N4CCC(C(N)=O)CC4)c3)no2)CC1,active: 22.4 µM
10,Cc1nc2cc(NC(C)C(=O)Nc3ccc(OC(F)(F)F)cc3)ccc2o1 (configuration not stated),"inconclusive: 39.8 µM [inhibitor, single point]"
11,O=C1NCc2ccccc2CC12CCCCN2CC1CCOCC1 (configuration not stated),"inconclusive: 89.1 µM [inhibitor, partial curve, poor fit]"
12,Cc1noc(C)c1S(=O)(=O)N1CCC2(C1)C(=O)N(c1ccccc1)c1ccccc12 (configuration not stated),"inconclusive: 22.4 µM [inhibitor, full curve, poor fit]"
13,Cc1nn(C)cc1CN(C)C(=O)c1cc2cn(C(C)C)cc2s1,"inconclusive: 10 µM [inhibitor, partial curve]"
14,COc1cc(OC)c(CC2C(=O)Nc3ccc(Br)cc32)c(OC)c1 (configuration not stated),"inconclusive: 11.2 µM [inhibitor, partial curve, poor fit]"
15,CCCCCCn1cc(C(=O)O)c(=O)c2cc(F)c(N3CCN(C(=O)OCC)CC3)cc21,"inconclusive: 35.5 µM [inhibitor, partial curve, poor fit]"
16,Cc1oc(-c2ccccc2)nc1Cn1c(=O)cc(-c2ccccc2)c2c(C)nn(C)c21,"inconclusive: 3.55 µM [inhibitor, partial curve, poor fit]"
17,COc1ccc(-c2cc3nc4c(c(=O)n3[nH]2)CN(S(=O)(=O)c2cccs2)CC4)cc1,"inconclusive: 25.1 µM [inhibitor, single point]"
